# In PubChem BioAssay AID2546 (National Center for Advancing Translational Sciences (NCATS), 2010):
# Screen size: about 310,000 compounds; about 11,000 (3.5%) were called active. The inconclusive results got no clear call from the source; some entries with a clear call stand among them for comparison. Calls come from the whole dose curve; as a rule, active = well fitted inhibition curve with a large enough effect; inconclusive = small, poorly fitted or top-dose-only effect, or effect the other way; inactive = flat fitted curve, though single readings scatter. Potencies of inconclusive entries are left out as doubtful fits.
# Assay: VP16 counterscreen qHTS for inhibitors of ROR gamma transcriptional activity;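 note: Gal4-VP16 expression switched on by copper sulfate through the metallothionein promoter; nearly all actives have a fitted effect of over 50% in size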
# Conditions: Drosophila S2 Gal4-VP16 UAS-luciferase, luminescence, 20 h; series mostly up to 53.6 µM
# Potency is the fitted concentration of half-maximal effect; tags give direction and shape of the fitted curve.
row,SMILES,Potency
1,N#CCCn1cc(C(=O)Nc2ccccc2Br)c(-c2cc3ccccc3o2)n1,active: 7.94 µM
2,O=C(NCc1ccc(Cl)cc1)C1CCN(S(=O)(=O)c2ccc(N3CCCC3=O)cc2)CC1,inactive
3,O=C(CS(=O)CC(=O)N(CC(=O)NC1CCCC1)c1ccc2c(c1)OCCO2)Nc1ccc(F)cc1 (stereo unspecified),inactive
4,O=C(NCc1nnc(SCC(=O)N2CCN(c3ccccc3)CC2)o1)c1c(F)cccc1Cl,inactive
5,Cc1nc2sccn2c(=O)c1CCN1CCC(=C(c2ccc(F)cc2)c2ccc(F)cc2)CC1,"inconclusive [inhibitor, single point]"
6,Cc1ccc(CNC(=O)c2ccc(N(C)C)cc2)cc1,"inconclusive [activator, single point]"
7,CC[N+](CC)(CCO)CCCN1C(=O)C2CC=C(Cl)CC2C1=O (stereo unspecified),"inconclusive [inhibitor, partial curve, poor fit]"
8,Cc1ccc(OCCSc2nc3ccccc3n2CC(=O)O)c(C(C)C)c1,inactive
9,Cc1cccc(N2CCN(C(=O)c3cc(COc4ccc(F)c(F)c4)on3)CC2)n1,"inconclusive [inhibitor, single point]"
10,COCCNc1ncnc2ccc(-c3ccccc3OC)cc12,"inconclusive [inhibitor, single point]"
11,O=C(c1cc(-c2ccc(Cl)cc2)n(-c2cc(Cl)ccc2Cl)n1)N1CCOCC1,"inconclusive [inhibitor, single point]"
12,O=C(Nc1ccc(F)c(Cl)c1)C1CC(=O)n2c(nc3ccccc32)N1 (stereo unspecified),"inconclusive [inhibitor, single point]"
13,CCOc1ccc(-c2cnc3ccccc3n2)cc1,active: 8.91 µM
14,CC(C)CC(=O)NC(=S)Nc1nc(-c2ccccc2)cs1,active: 5.62 µM
15,Nc1nnc(SCC(=O)Nc2ccc3nc(SCC(=O)Nc4ccccc4)sc3c2)s1,"inconclusive [inhibitor, single point]"
16,CCOc1cccc(-c2c(C(=O)N/N=C(\C)c3cccs3)nnn2-c2nonc2N)c1,"inconclusive [inhibitor, single point]"
17,CN(C)CCCN(Cc1cc2cc3c(cc2[nH]c1=O)OCO3)C(=S)Nc1cccc(Cl)c1,"inconclusive [inhibitor, single point]"
18,OC(CN(c1ccccc1)c1ccccc1)Cn1cnc2ccccc21 (stereo unspecified),"inconclusive [inhibitor, single point]"
19,CN(C)c1nccc(NCc2ccccc2)c1C#N,"inconclusive [activator, single point]"
20,CCOc1ccc(CNC(=S)N/N=C/c2cccnc2)cc1,"inconclusive [inhibitor, single point]"
21,CCN1CCN(CCCNC(=O)c2ccc3c(c2)NC(=O)/C(=C\c2cccc(C)c2)S3)CC1,"inconclusive [inhibitor, single point]"
22,Cc1ccc2nc(N3CCN(c4ccccc4F)CC3)c(C=O)c(=O)n2c1,inactive
23,CCCCOc1ccccc1NC(=O)CC1Nc2ccccc2NC1=O (stereo unspecified),"inconclusive [inhibitor, single point]"

row,SMILES,Potency
1,O=C(NCc1ccc2c(c1)OCO2)c1nc(S(=O)(=O)Cc2ccccc2F)ncc1Cl,active: 3.55 µM
2,Cc1ccc(C(=O)CC(=O)c2cc(Cl)ccc2O)cc1,active: 10 µM
3,FC(F)(F)c1ccccc1NC(=S)NN1CCOCC1,"inconclusive [inhibitor, single point]"
4,COc1ccc(OC)c(/C=N\NC(=O)c2ccc(-c3ccccc3)cc2)c1,inactive
5,Clc1ccccc1Nc1c2c(nc3ncnn13)CCC2,"inconclusive [inhibitor, single point]"
6,S=c1[nH]nc(COc2ccc(Cl)cc2)n1C1CCCCC1,active: 0.794 µM
7,CC(C)(C)NC(=S)NNC(=O)c1cccc(Br)c1,"inconclusive [inhibitor, single point]"
8,COc1ccc(NCC(=O)Nc2ccccc2C#N)cc1Cl,inactive
9,Cc1cc(N2CCN(S(=O)(=O)c3ccccc3)CC2)c2ccccc2n1,"inconclusive [inhibitor, single point]"
10,CCOC(=O)c1c(NC(=S)NCc2ccccc2)sc2c1CCN(C(=O)OCC)C2,active: 4.47 µM
11,Cc1nonc1NC(=O)CSc1nc2ccccc2o1,"inconclusive [inhibitor, single point]"
12,COc1ccc(NC(=O)CCCC(=O)OCC(=O)c2cccc(OC)c2)cc1,"inconclusive [inhibitor, full curve, poor fit]"
13,O=C(CSc1ccc(Cl)cc1)Nc1cc(-c2nc3ncccc3o2)ccc1Cl,"inconclusive [inhibitor, single point]"
14,O=C1NC(=S)S/C1=C\c1coc2ccc(O)cc2c1=O,inactive
15,COc1ccc(Cn2c(-c3ccc(C)cc3)c[n+]3ccccc23)cc1,active: 17.8 µM
16,COC(=O)C1CCN(Cc2ccc(OCCCN3CCN(c4ccc([N+](=O)[O-])cc4)CC3)cc2)CC1,"inconclusive [inhibitor, single point]"
17,O=C1c2c(O)ccc(O)c2C(=O)c2c(NCCNCCO)ccc(NCCNCCO)c21,"inconclusive [inhibitor, full curve, poor fit]"
18,O=C(CSc1nc(Nc2ccccc2)nc(N2CCOCC2)n1)Nc1cc(Cl)ccc1O,"inconclusive [inhibitor, single point]"
19,O=C(Nc1ccc(NC(=O)C2CC2)nc1)c1ccccn1,active: 7.08 µM
20,CCOCCCNC(=O)C1(O)c2cc(Br)ccc2NC(=O)N1c1ccc(OCC)cc1 (stereo unspecified),inactive
21,O=C(N[C@@H]1CCC(=O)N(CC[C@H](Oc2ccccc2)c2ccccc2)CC1)OCc1ccccc1,inactive
22,CN(C)C(CNC(=O)c1cc2ccccc2oc1=O)c1ccccc1 (stereo unspecified),"inconclusive [inhibitor, single point]"
23,CCOc1ccc2[nH]c3c(NCC(C)C)ncnc3c2c1,"inconclusive [inhibitor, full curve, poor fit]"
